We go through 4 molecules from PMC2441632.

Results are given in words; binding and its absence hold for the method and conditions named. For part of these data: In cells and extracts the contact can be indirect. Some entries that bind do so weakly or less than the wild type. For part of these data: Tags and fused reporters may be left off the sequences shown.

The target of assay [1] is T1, Dmp53ΔN (amino acids 47-385) fused to lexA DNA binding domain (Drosophila melanogaster) (UniProt Q9N6D8).
T1 sequence: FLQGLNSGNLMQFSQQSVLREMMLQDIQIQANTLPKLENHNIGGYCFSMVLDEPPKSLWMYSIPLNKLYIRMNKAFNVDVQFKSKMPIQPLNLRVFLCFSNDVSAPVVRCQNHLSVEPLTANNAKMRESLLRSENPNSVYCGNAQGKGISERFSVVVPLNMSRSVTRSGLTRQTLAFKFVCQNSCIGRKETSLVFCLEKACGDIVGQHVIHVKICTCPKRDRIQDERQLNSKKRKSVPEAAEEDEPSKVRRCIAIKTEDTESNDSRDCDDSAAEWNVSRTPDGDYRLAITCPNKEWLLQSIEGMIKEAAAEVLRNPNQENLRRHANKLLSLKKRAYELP
As to the kind of experiment: two-hybrid; library screen: lexA-DBD-Dmp53ΔN as bait, Drosophila embryonic cDNA library in pACT2; His complementation and β-galactosidase colony-lift filter assay.

In assay [2] the target is T2, Dmp53C1 (amino acids 277-351) fused to lexA DNA binding domain (Drosophila melanogaster) (UniProt Q9N6D8).
T2 sequence: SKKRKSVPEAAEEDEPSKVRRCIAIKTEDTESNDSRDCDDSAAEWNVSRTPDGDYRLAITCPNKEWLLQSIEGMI
As to the kind of experiment: two-hybrid; pairwise: lexA-DBD fusions co-introduced into yeast with DmTAF3 514-924 fused to Gal4 AD; His complementation and β-galactosidase filter assay.

In assay [3] the target is T3, Dmp53C2 (amino acids 349-385) fused to lexA DNA binding domain (Drosophila melanogaster) (UniProt Q9N6D8).
T3 sequence: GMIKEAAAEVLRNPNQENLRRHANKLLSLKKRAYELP
Described as above.

The target of assay [4] is T4, Dmp53ΔNΔC (amino acids 47-294) fused to lexA DNA binding domain (Drosophila melanogaster) (UniProt Q9N6D8).
T4 sequence: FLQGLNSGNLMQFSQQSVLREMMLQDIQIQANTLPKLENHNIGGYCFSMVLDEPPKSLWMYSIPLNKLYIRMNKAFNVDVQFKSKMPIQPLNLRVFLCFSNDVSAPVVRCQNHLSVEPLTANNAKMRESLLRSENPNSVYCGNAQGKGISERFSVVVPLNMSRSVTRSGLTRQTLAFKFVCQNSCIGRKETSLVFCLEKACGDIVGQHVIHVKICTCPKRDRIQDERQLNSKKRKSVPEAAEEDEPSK
The assay is described as above.

Assay [5] has as its target T5, Drosophila ADA2A fused to lexA DNA binding domain (Drosophila) (UniProt Q7KSD8).
T5 sequence: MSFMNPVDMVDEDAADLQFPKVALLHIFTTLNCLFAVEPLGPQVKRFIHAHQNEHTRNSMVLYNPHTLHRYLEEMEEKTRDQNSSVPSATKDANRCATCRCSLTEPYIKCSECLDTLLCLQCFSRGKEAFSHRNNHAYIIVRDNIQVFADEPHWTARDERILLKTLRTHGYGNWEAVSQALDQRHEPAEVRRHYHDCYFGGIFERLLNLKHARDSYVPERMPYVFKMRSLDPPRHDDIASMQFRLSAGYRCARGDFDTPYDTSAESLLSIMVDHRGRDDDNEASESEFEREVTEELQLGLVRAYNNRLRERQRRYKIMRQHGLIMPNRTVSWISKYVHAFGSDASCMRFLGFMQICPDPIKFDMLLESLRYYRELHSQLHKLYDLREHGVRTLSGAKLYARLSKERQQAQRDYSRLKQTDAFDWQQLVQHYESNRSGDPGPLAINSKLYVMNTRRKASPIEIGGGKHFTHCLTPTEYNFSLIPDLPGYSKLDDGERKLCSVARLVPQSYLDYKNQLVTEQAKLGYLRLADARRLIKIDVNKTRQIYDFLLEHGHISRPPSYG
The assay is described as above.

Assay [6] has as its target T6, Dmp53C (amino acids 277-385) fused to lexA DNA binding domain (Drosophila melanogaster) (UniProt Q9N6D8).
T6 sequence: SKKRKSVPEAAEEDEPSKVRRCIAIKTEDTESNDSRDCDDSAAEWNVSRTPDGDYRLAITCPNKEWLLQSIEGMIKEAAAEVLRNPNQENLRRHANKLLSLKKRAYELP
The assay is described as above.

The target in assay [7] is T7, GST-Dmp53C (Drosophila melanogaster) (UniProt Q9N6D8).
T7 sequence: T6 sequence
As to the kind of experiment: pull-down; GST or GST-Dmp53C on glutathione beads, incubated with in vitro translated 3H-leucine DmTAF3(514-924); autoradiography; only the target purified.

Assay [8] has as its target T7, GST-Dmp53C (Drosophila melanogaster). As to the kind of experiment: pull-down; GST, GST-Dmp53C or GST-p53 on glutathione sepharose beads, Sf9 extract with mTAF3, over night at 4°C; wash with 400 mM KCl; Western blot with anti-TAF3; only the target purified.
In assay [9] the target is GST-p53 (human) (UniProt P04637). The description is as above.
The target of assay [10] is T7, GST-Dmp53C (Drosophila melanogaster). As to the kind of experiment: pull-down; GST, GST-Dmp53C or GST-p53 on glutathione sepharose beads, Sf9 extract with mTAF3, over night at 4°C; wash with 200 mM KCl; Western blot with anti-TAF3; only the target purified.
Assay [11] deals with GST-p53 (human) (UniProt P04637). The description is as above.

B1: DmTAF3 amino acids 738 to 1061 (clone 11), two-hybrid library clone (domain or fragment, UniProt Q9XZU7 738-1061)
chain: GLIPTGPGLFSAVTGLVGFGNHGNRIPISPFIDYPGPEESVADTVRCPPIKDSPVTDSDQFLSRSSTQTDLQMDRNYCNVAPLVPDSMKFAECKSVSCASTILENPSAQATSKINTKPLLEASGNPDDPIEVSDDSDESMHNRQMVQRKTPISSPTYVKTSFAELNPSSFTSAASNPEEKSKIDLRNIVSLSSNEPLKKFKKLVKQSFPDVKSVPHTPASHSSFPQFNLPNFMGGDKFSLAGGADLIPLSRVSDSEYSSKIVPFSSLGGTIPNQIKISEEHNIFSTFSNYEDITITPTGLTSLEPKMRKHHKKLKKVKEGKNKK
B1: in [1], the binding result is “binds”.

B2: DmTAF3 amino acids 514 to 924 fused to Gal4 activation domain (domain or fragment, UniProt Q9XZU7 514-924)
chain: MTPSALISLPSGTTITPTPSLGLNSENKNVPSMKINPCNIFDGTIPLTKAGVEMSIIDSPKPKKRGRKPGGKNLIKQTNVISQPLINKVERKKSSQAITLPLSSSPMIITQSSLNVSPPTEPLNLCNTEQPSNNFLSNLYAKEKKDRKKYKSLPENVMQLDKSCSPEKASTLHNSIRPTKQNNDVQCSDKFVTISNALSNASIYPGIQTGMVPLLPLLQFPPRPGLIPTGPGLFSAVTGLVGFGNHGNRIPISPFIDYPGPEESVADTVRCPPIKDSPVTDSDQFLSRSSTQTDLQMDRNYCNVAPLVPDSMKFAECKSVSCASTILENPSAQATSKINTKPLLEASGNPDDPIEVSDDSDESMHNRQMVQRKTPISSPTYVKTSFAELNPSSFTSAASNPEEKSKIDLRN
As for B2, the binding result is given as “binds” in assay [2]; “binds weakly” in assay [3]; “binds weakly” in assay [4]; “no binding” in [5]; “binds” in assay [6]; “binds” in [1].

B3: DmTAF3 (aa 514-924), in vitro translated (domain or fragment, UniProt Q9XZU7 514-924)
chain: B2 chain
modifications: 3H-labelled leucine
For the molecule B3, the binding result in assay [7] is recorded as “binds”.

B4: full length murine TAF3 (mTAF3), Sf9 extract (protein, UniProt Q5HZG4 1-932)
chain: MCESYSRSLLRVSVAQICQALGWDSVQLSACHLLTDVLQRYLQQLGRGCHRYSELYGRTDPILDDVGEAFQLMGVNLHELEDYIHNIEPVTFPHQIPSFPVSKNNVLQFPQPGSKDAEERKDYIPDYLPPIVSSQEEEEEEQVPTDGGTSAEAMQVPLEEDDEMEEEEVINDENFLGKRPLDSPEVEEMPSMKRPRLLSTKGDSLDVVLLEAREPLSSINPQKTPPVLSPVRVQDRADLAPPSPQPPMLAPFAKSQLPIAKPLETKSFTPKTKTKASSPGQKTKSPKAALSPARLGSPIRSPKTIPKEKKSPGRSKSPKSPKSPKIVAHVPQTPVRPETPNRTPSAMVVEKTVKETIPVMKPTQTPPEVVKLNIEMQPKKPVVTDKTIDDSIDAVIARACAEREPDPFEFSSGSESEGDTFTSPKRISGSECATPKASTSSNNFTKSLATPLPLSSGTSSSDNSWTMDASIDEVVRKAKLGAPSNMPPTFPYISSPSISPPTPEPLHKGYEEKAKLPSSVDVKKKLKKELKTKLKKKEKQRDRERERERNKERSKEKDKMREREKEKEAGKELKYPWRELMKDEDSDPYKFKIKEFEDIDAAKVRLKDGIVRREREKHKDKKKDRERSKREKDKRERERLKEKNREDKIKAPPTQLVLPPKEMALPLFSPSAVRVPAMLPAFSPMLPEKLFEEKEKPKEKERKKDKKEKKKKKEKEKEKEKKEREREKERREREKREKEKEKHKHEKIKVEPVIPAPSPVIPRLTLRVGAGQDKIVISKVVPAPEAKPAPSLNRPKTPPPAPVPIPVRVSPTPLQPPLLTQAAVCPALMPSPAPALSGIGSAKAPVRSVVTETVSTYVIRDEWGNQIWICPGCNKPDDGSPMIGCDDCDDWYHWPCVGIMAAPPEEMQWFCPKCANKIKKDKKHKKRKHRAH
On to B4, for which the binding result in [8], in [9], in assay [10] and in [11] was “binds” in each case.
